SMILES strings stand for the structures. Out of some 340,000 compounds screened, about 6,900 (2%) were called active. No stated cut-off is given here; in the data, active means inhibition above about 30%; inactive means below that, where a call was filed. This is a selection; strong and weak results do not stand in their true shares. Where no call is shown, the source filed none.

The inhibition is the drop in the measured response relative to a control, in per cent.

Sequence of UniProt P14416 (P14416 whole entry, looked up): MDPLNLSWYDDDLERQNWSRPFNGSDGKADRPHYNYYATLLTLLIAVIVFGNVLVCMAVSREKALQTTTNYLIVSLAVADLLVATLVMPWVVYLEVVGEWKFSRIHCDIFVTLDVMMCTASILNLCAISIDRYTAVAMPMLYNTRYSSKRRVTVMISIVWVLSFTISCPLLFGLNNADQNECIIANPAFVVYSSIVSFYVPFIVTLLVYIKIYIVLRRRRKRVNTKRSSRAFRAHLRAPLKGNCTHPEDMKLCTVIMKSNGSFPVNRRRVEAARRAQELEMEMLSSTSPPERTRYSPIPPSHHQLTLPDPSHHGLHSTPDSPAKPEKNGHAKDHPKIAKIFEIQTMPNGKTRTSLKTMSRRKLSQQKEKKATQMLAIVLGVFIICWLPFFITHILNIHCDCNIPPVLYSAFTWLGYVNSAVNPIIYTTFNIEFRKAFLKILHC

The target of the assay is D(2) dopamine receptor (Homo sapiens) (UniProt P14416). The experiment in a line: HTS Assay for Allosteric Antagonists of the Human D2 Dopamine Receptor: Primary Screen for Antagonists. Further: 0% is about no effect. As to conditions: HEK293 TREx D2 cells, calcium flux, dopamine EC80; at 10 µM; stronger effect = higher value. Put shortly:
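Inhibition of EC80 dopamine-driven calcium flux, recorded kinetically, defines activity here; cells are a tetracycline-induced HEK293 T-REx line expressing force-coupled D2.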
On the technique in general: Calcium assays in cells follow changes in intracellular calcium, usually with a dye or a luminescent sensor.
On to `COc1cc(Cl)c(NC(=O)c2cc(S(=O)(=O)N3CCCCC3)c[nH]2)c(OC)c1`, for which the inhibition is -1.45%.
To `Cc1sc2c(c1C)c(=O)n(-c1ccc(Cl)cc1)c(=O)n2Cc1cc(=O)n2cc(Br)ccc2n1` belongs -0.45%; to `Cc1cc(N2CCC(C(=O)Nc3ccc(F)cc3C)CC2)n2nc(C)c(-c3ccc(Cl)cc3)c2n1`, 6.05%.
To `Cc1ccc(N2CC(c3nc(-c4ccc(Cl)cc4)no3)CC2=O)cc1F` (configuration not stated) belongs 11.2%; to `Cc1cc(-c2ccccc2)n2nc(-c3ccc(Cl)cc3)cc2n1`, 7%.
As for `Cc1cc(Br)ccc1NC(=O)C1CCCN(S(=O)(=O)c2cccc3nonc23)C1` (configuration not stated), the figure is 16.3%; as for `CCc1ccc(S(=O)(=O)c2nnn3c2nc(N2CCOCC2)c2sccc23)cc1`, -13.6%; as for `CCOc1cc(/C=C2\SC(=S)N(Nc3ccccc3)C2=O)ccc1O`, active: 35.1%.
With `CCOC(=O)c1cccc(NC(=O)CC2C(=O)N(c3ccc(Cl)cc3)C(=O)N2C2CCCC2)c1` (configuration not stated), the inhibition is -2.5%.
Regarding `Cc1ccc(S(=O)(=O)CCC(=O)Nc2ccc(OC(F)(F)F)cc2)cc1`, the inhibition was -0.637%.
To `Cc1cccc(NC(=O)Cn2ncc3c4ccccc4n(Cc4ccccc4)c3c2=O)c1C` belongs -4.24%; to `CCc1ccccc1NC(=O)Cn1c(=O)n(CCCCCC(=O)NCc2ccc(C)cc2)c(=O)c2sccc21`, -6.89%.
To `COc1cc(Cl)c(C)cc1NC(=O)CSc1nc2c(c(=O)[nH]1)CCC2` belongs 11.5%.
As for `CCC(Sc1nc2ccncc2[nH]1)C(=O)Nc1cc(Cl)ccc1C` (configuration not stated), the inhibition was -28%.
With `O=C(c1ccc2c(c1)N(Cc1ccccc1F)C(=O)c1ccccc1S2(=O)=O)N1CCc2ccccc21`, the inhibition worked out at 3.54%.
As for `COc1ccccc1NC(=O)CSc1nnc(NC(=O)NC2CCCCC2)s1`, the figure is -13.9%; as for `Cc1ccc(CNC(=O)C2CCN(S(=O)(=O)c3cccc4nonc34)CC2)cc1`, 3.76%; as for `C=C(C)c1cccc(C(C)(C)NC(=O)NC2CCN(Cc3ccccc3)CC2)c1`, active: 89.2%.
As for `COc1ccccc1/C=C/c1nc(C#N)c(N2CCN(C)CC2)o1`, the figure is -2.93%.
As for `Cc1nn(-c2ccccc2)c2c1cc1c(=O)[nH]c(=O)nc-1n2-c1cccc(Cl)c1`, the figure is 1.69%; as for `Cc1cc(=O)c2cc(C(=O)Nc3ccc(C)c(C)c3)ccc2[nH]1`, -3.92%.
Regarding `Cc1cc(NC(=O)Nc2nnc(N(C)C3CCCCC3)s2)ccc1Br`, the inhibition turned out to be 2.02%.
Consider `COc1ccc(C(=O)N2CCC(c3nc4ccccc4s3)CC2)cc1Cl`, for which the inhibition was -0.618%.
To `CCc1ccc(NCc2cc3cc4c(cc3n(CC(=O)Nc3ccccc3OC)c2=O)OCCO4)cc1` belongs 6.03%; to `Cc1ccc2oc(C(=O)Nc3ccc(S(=O)(=O)N(C)c4ccccc4)cc3)cc(=O)c2c1`, 6.76%; to `CCc1ccc(NC(=O)C2CCCN2S(=O)(=O)c2ccc3c(c2)n(C)c(=O)c(=O)n3C)cc1` (configuration not stated), 2.66%.
For `COc1ccccc1CNC(=O)CN(C)c1nn2c(=O)cc(C)nc2s1`, the inhibition was 3.2%.
To `CC(=O)c1ccc(NC(=O)CSc2nnc3ccc(-c4ccc(Br)cc4)nn23)cc1` belongs 15.6%; to `COc1ccc2c(c1)cc1c(=O)n(CC(=O)NC(C)C)nc(C)n12`, 9.02%; to `COc1ccccc1NC(=O)CCC(=O)N1CC(C)Oc2ccc(C)cc21` (configuration not stated), -23.2%.
To `CC1CCN(S(=O)(=O)c2ccc3c(c2)c(=O)c(C(=O)NCCc2ccccc2)cn3C)CC1` belongs 9.4%; to `COc1cccc2cc(C(=O)NCc3ccc(Cl)cc3)c(=N)oc12`, active: 106%; to `CCCCN1C(=O)c2[nH]nc(-c3ccccc3O)c2C1c1ccc(OCc2ccccc2)cc1` (configuration not stated), -15.2%.
As for `COc1ccc(S(=O)(=O)NCCc2csc3nc(-c4cccc(C)c4)nn23)cc1F`, the figure is -1.04%; as for `COc1ccccc1CNC(=O)c1c(O)nc2c(C)cccn2c1=O`, 12.7%.
With `CN(C)CCNC(=O)c1ccc2c(c1)NC(=O)C(CS(=O)(=O)Cc1cccc(Br)c1)N2` (configuration not stated), the inhibition came out at 0.261%.
Turning to `Cc1ccc(-n2c(=O)c3c(cnn3C)n(CC(=O)Nc3ccc(C)cc3C)c2=O)cc1`, the inhibition came to 2.48%.
As for `CC1=C(C(=O)Nc2ccc(C)cc2C)C(c2ccc([N+](=O)[O-])cc2)n2ncc(C(=O)Nc3ccc(F)cc3)c2N1` (configuration not stated), the figure is -5.34%; as for `Cc1c(C(=O)N2CCC(C)CC2)c(S(=O)(=O)NCc2ccc(Cl)cc2)c(C)n1C`, -10.6%.
To `Cc1ccccc1Cc1c(C)nc2nc(SCC(=O)N(C)c3ccccc3)nn2c1C` belongs 10.8%; to `CN(c1ccc(F)cc1)S(=O)(=O)N1CCCC(C(=O)NCc2cccc(Br)c2)C1` (configuration not stated), 7.74%.
To `CC(=O)c1ccc(N2CCN(C(=O)CCC(=O)Nc3ccc4nc(N5CCCCC5)cc(C)c4c3)CC2)cc1` belongs 24.8%.
With `CCOc1ccc(OCC(=O)NCCS(=O)(=O)N2CCN(c3ccccc3F)CC2)cc1`, the inhibition was determined as 12.8%.
On to `Cc1ccc(C(=O)c2c(N)c(C(=O)Nc3ccccc3Cl)c3ccccn23)cc1`, for which the inhibition is -0.0008%.
To `COC(=O)CNC(=O)C1CCN(S(=O)(=O)c2cccc3nsnc23)CC1` belongs 7.52%.
As for `O=C(CN1C(=O)COc2ccc(Cl)cc21)Nc1cccc(F)c1`, the figure is -6.88%; as for `Cc1sc2ncn(CC(=O)Nc3cccc(C(F)(F)F)c3)c(=O)c2c1S(=O)(=O)N1CCN(C)CC1`, 6.01%; as for `COc1ccc(S(=O)(=O)Nc2ccc(-c3ccc(N4CCCC4)nn3)cc2)cc1F`, 10.1%.
To `Cc1ccc(NC(=O)Cn2c(=O)n(Cc3nc(C)no3)c(=O)c3cc4c(cc32)OCO4)c(C)c1` belongs 7.27%.
For the compound `N#Cc1nc(COc2cccc(Cl)c2)oc1NCCc1ccccc1`, the inhibition turned out to be 1.55%.
To `CCOc1ccccc1C(=O)N(Cc1cc(OC)c(OC)c(OC)c1)c1ccccn1` belongs 5.25%; to `CCCn1c(SCc2nc(-c3ccccc3OCC)no2)nnc1-c1ccc(Cl)cc1`, -19.8%; to `CCc1ccc(-c2cn3c(n2)sc2cc(C(=O)NCCC4=CCCCC4)ccc23)cc1`, -8.15%.
With `CCOC(=O)c1ccc(NC(=O)CSc2cn(CC(=O)N3CCCC3)c3ccccc23)cc1`, the inhibition is -10.4%.
To `CCCOc1ccc(C(=O)Nc2ccc3oc(-c4cccc(Cl)c4Cl)nc3c2)cc1` belongs -2.55%.
Consider `CCOC(=O)c1ccc(NC(=O)C(Cc2ccccc2)N2Cc3ccccc3C2=O)cc1` (configuration not stated), for which the inhibition was -18.4%.
To `CCn1c(=O)c2sccc2n2c(CCCC(=O)N3CCN(c4cccc(Cl)c4)CC3)nnc12` belongs 0.57%; to `COC(=O)c1ccc2c(c1)N(CC(=O)Nc1ccc(OC)c(Cl)c1)C(=O)c1ccccc1S2`, -17.6%.
As for `Cc1ccc(-n2nc3c(N4CCCC(C(=O)NCc5ccc(Cl)cc5)C4)nnc(C)c3c2C)cc1` (configuration not stated), the figure is -17.2%; as for `COc1ccc(C(=O)Nc2nc3n(n2)C(c2ccccc2)C=C(c2ccccc2)N3)cc1` (configuration not stated), 0.107%; as for `O=C(CCS(=O)(=O)c1nc(-c2cccs2)cc(C(F)(F)F)n1)Nc1cc(Br)ccc1O`, -9.87%.
In the case of `CC(C)c1ccc(NC(=O)Cn2cc(S(=O)(=O)Cc3cccc(Cl)c3)c3ccccc32)cc1`, the inhibition was -3.7%.
As for `Cc1ccccc1C(=O)Nc1sc2c(c1C(=O)N1CCCCC1)CCC(C)C2` (configuration not stated), the figure is 8.42%.
For the compound `COc1cccc(C(=O)N2c3ccc(C)cc3C(C)(c3ccccc3)CC2(C)C)c1` (configuration not stated), the inhibition is -1.37%.
To `COc1ccc(C2NC(=O)NC(C)=C2C(=O)Nc2ccccc2)cc1OC` (configuration not stated) belongs 6.05%; to `O=C(CCN1C(=O)c2ccccc2Sc2ncccc21)Nc1ccc(F)cc1F`, 13.7%; to `Cc1ccc(CC(=O)Nc2ccc3c(c2)N(C)C(=O)c2ccccc2S3)cc1`, 9.45%.
To `O=C(NCc1cccnc1)C(=O)NCC(c1cccnc1)N1CCN(c2ccc(F)cc2)CC1` (configuration not stated) belongs -9.33%.
To `CCCCCc1c(C)nc(N2CCc3ccccc3C2)[nH]c1=O` belongs active: 31.9%; to `Cc1ccc(Nc2sc(C(=O)c3ccccc3)c(N)c2C(=O)Nc2ccc(Cl)cc2)cc1`, -0.113%; to `COc1ccc(-c2cn3nc(N4CCCC(C(=O)Nc5cccc(OC)c5)C4)sc3n2)cc1` (configuration not stated), 4.5%.
Regarding `CCOCCCNC(=O)c1cc(Sc2cccc(Cl)c2)nc2ccccc12`, the inhibition is -15.4%.
As for `Cc1ccc(CNC(=O)CCCCCn2c(=O)c3sccc3n(CC(=O)Nc3ccc(C)c(F)c3)c2=O)cc1`, the figure is 14.9%; as for `CC(C)CN(CCCNC(=O)c1cc(=O)[nH]c2ccc(S(=O)(=O)N3CCCC3)cc12)CC(C)C`, 16.8%.
As for `O=C(COC(=O)C1CCCCC1)Nc1ccc([N+](=O)[O-])cc1`, the figure is active: 35.3%; as for `CN1CCc2c(sc(NC(=O)CSc3ccc(F)cc3)c2-c2nc3ccccc3s2)C1`, -22.5%.
As for `COc1cccc(C(=O)NC(=NCCc2c[nH]c3ccc(OC)cc23)Nc2nc(C)cc(C)n2)c1`, the figure is 12.2%.
As for `CCN1C(C(=O)c2ccccc2)=C(OC(=O)COc2ccc(OC)cc2)c2ccccc2S1(=O)=O`, the inhibition is -6.83%.
To `COc1ccc(NC(=O)c2oc3ccccc3c2NC(=O)C23CC4CC(CC(C4)C2)C3)c(OC)c1` belongs -7.99%; to `COc1ccc2c(c1)c(CC(=O)Nc1ccc(C(C)=O)cc1)c(C)n2C(=O)c1ccc(Cl)cc1`, -26.9%.
As for `COc1ccc(S(=O)(=O)NCCS(=O)(=O)N2CCN(c3ccccc3)CC2)cc1OC`, the figure is 2.09%; as for `Cc1ccc(NC(=O)c2oc3ccccc3c2NC(=O)c2ccc(F)c(F)c2)cc1`, -1.89%.
As for `CCc1ccc(NC(=O)CSc2nc3c(oc4ccccc43)c(=O)n2-c2cccc(C)c2)cc1`, the figure is 5.72%; as for `CCc1cccc(CC)c1NC(=O)C(Cc1ccccc1)NS(=O)(=O)c1cccc2nsnc12` (configuration not stated), -13.1%.
Turning to `O=C(Nc1nc2ccc(Cl)cc2s1)c1cc(=O)c2ccccc2o1`, the inhibition came to 5.98%.
As for `COc1ccc(OC)c(NC(=O)CC2C(=O)NCCN2C(=O)C(F)(F)F)c1` (configuration not stated), the figure is 5.73%; as for `CCOc1ccc(NC(=O)CCc2nc3cccnc3n2-c2ccccc2)cc1`, 1.21%; as for `CCN(Cc1ccccc1)Cc1c(O)ccc2c(=O)c(-c3ccc(Cl)cc3)coc12`, 1.21%.
`Cc1ccc(-c2cc(-c3coc4ccc(Cl)cc4c3=O)c3c(n2)-c2ccccc2OC3)cc1`: the inhibition turned out to be 7.15%.
As for `O=C(NCc1ccccc1Cl)c1cnc(N2CCOCC2)c2ccccc12`, the figure is 3.11%.
To `Cc1ccc2cccc(NC(=O)c3cccc4c(Cl)cccc34)c2n1` belongs -9.26%; to `O=C(C1CCC(Cn2c(=O)c3sccc3n(Cc3ccccc3)c2=O)CC1)N1CCCCC1` (configuration not stated), 4.47%.
